Test results from a compilation of properties of binary mixtures (doi:10.1021/je300384g).
Some of these densities may be calculated back from excess volumes.

Assay: xn = mol fraction of the nth substance listed
Conditions: 101 kPa

CCCC[N+]1(C)CCCC1.N#C[N-]C#N + CC(C)O
mass density [kg/m3]
Conditions	298.15 K	313.15 K	328.15 K
x2 = 0	1013.4	1005.1	996.8
x2 = 0.0466	–	1001.4	993.1
x2 = 0.0896	1006.5	–	989.7
x2 = 0.1849	998.1	989.5	981.1
x2 = 0.2967	986.6	977.9	969.3
x2 = 0.4039	973	964.1	955.4
x2 = 0.5056	957.3	–	939.2
x2 = 0.6018	938.7	929.3	919.9
x2 = 0.6997	914.9	905.1	895.2
x2 = 0.8066	880.8	–	859.7
x2 = 0.892	–	834	–
x2 = 0.9461	–	805	792.6

CCCC[N+]1(C)CCCC1.N#C[N-]C#N + CCCCO
mass density [kg/m3]
Conditions	298.15 K	313.15 K	328.15 K
x2 = 0	–	–	996.8
x2 = 0.0464	1009.7	1001.3	993
x2 = 0.0945	1005.8	997.3	989
x2 = 0.1898	997	988.4	–
x2 = 0.299	985	976.3	967.7
x2 = 0.4012	971.7	962.8	954
x2 = 0.4989	956.5	947.4	938.4
x2 = 0.5996	937.7	928.5	–
x2 = 0.6947	916.4	906.8	–
x2 = 0.7995	887	–	866.7
x2 = 0.8965	853.1	842.4	831.6
x2 = 0.9464	832.3	821.2	809.9

CC(C)O + CCCC[N+]1(C)CCCC1.N#C[N-]C#N
x1 = 1
Conditions	mass density [kg/m3]
313.15 K	768.5
328.15 K	754.6

CCCCO + CCCC[N+]1(C)CCCC1.N#C[N-]C#N
x1 = 1
Conditions	mass density [kg/m3]
298.15 K	805.7
313.15 K	794.1
328.15 K	782.1

CCCO + CCCC[N+]1(C)CCCC1.N#C[N-]C#N
x1 = 1
Conditions	mass density [kg/m3]
298.15 K	799.7
313.15 K	787.4
328.15 K	774.8

CCCC[N+]1(C)CCCC1.N#C[N-]C#N + CCCO
mass density [kg/m3]
Conditions	298.15 K	313.15 K	328.15 K
x2 = 0	1013.4	1005.1	–
x2 = 0.0669	1008.9	1000.5	992.2
x2 = 0.1894	999.5	990.9	982.5
x2 = 0.2912	–	981.2	972.6
x2 = 0.3998	977.5	–	959.9
x2 = 0.514	–	952.2	–
x2 = 0.597	946.6	937.3	927.9
x2 = 0.6944	925.3	915.5	–
x2 = 0.8002	895	–	874.4
x2 = 0.894	858.7	847.7	836.6
x2 = 0.9437	834.3	822.9	811.2
